Test results: the supplement of paper PMC4967469

Key:
Assay in all cases: Viability of human cancer cell lines after 72 h of drug (GDSC screen)
[1] = compound: O=S(=O)(O)c1ccc2cc(N=Nc3cc(S(=O)(=O)O)c4cccnc4c3O)ccc2c1 [NSC-87877]; details: top dose 16 µM; top dose inferred
Method: (§1)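 Human cancer cell lines in 384-well plates, medium with 10% serum, drug for 72 h over a 256-fold dose range (nine 2-fold or five 4-fold steps up to the top dose). Adherent lines were fixed and stained with the nucleic acid dye Syto60, suspension lines read with resazurin; signal relative to control wells, capped at 0 and 100%. One two-parameter sigmoid per drug and line, fitted in a mixed model over all curves with the slope shared within a line.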

[2] = compound: CC/C(=C(\c1ccccc1)c1ccc(OCCN(C)C)cc1)c1ccccc1 [Tamoxifen]; details: top dose 5 µM
Method: as §1

[3] = compound: CCCC(=O)OCc1ccc(OC(=O)/C=C(C)/C=C/C=C(C)/C=C/C2=C(C)CCCC2(C)C)cc1 [VNLG/124]; details: top dose 5.12 µM; top dose inferred
Method: as §1

[4] = compound: O=C(Nc1cccc(Nc2ncc(Br)c(NCCc3cnc[nH]3)n2)c1)N1CCCC1 [BX-912]; details: top dose 10.24 µM; top dose inferred
Method: as §1

[5] = compound: Cc1c(N)nc([C@H](CC(N)=O)NC[C@H](N)C(N)=O)nc1C(=O)N[C@H](C(=O)N[C@H](C)[C@@H](O)[C@H](C)C(=O)N[C@H](C(=O)NCCc1nc(-c2nc(C(=O)NCCC[S+](C)C)cs2)cs1)[C@@H](C)O)[C@@H](OC1OC(CO)C(O)C(O)C1OC1OC(CO)C(O)C(OC(N)=O)C1O)c1cnc[nH]1 [Bleomycin]
Method: as §1

[6] = compound: O=C(Nc1ccc(OC(F)(F)F)cc1)c1sccc1NCc1ccnc2ccccc12 [OSI-930]; details: top dose 10.24 µM
Method: as §1

[7] = compound: O=C(/C=C/c1ccc(CN(CCO)CCc2c[nH]c3ccccc23)cc1)NO [LAQ824]; details: top dose 1.024 µM; top dose inferred
Method: as §1

[8] = compound: CN(NC(=O)CC(=O)NN(C)C(=S)c1ccccc1)C(=S)c1ccccc1 [Elesclomol]; details: top dose 0.2 µM; top dose inferred
Method: as §1

[9] = compound: Cc1ccc(NC(=O)c2ccc(CN3CCN(C)CC3)cc2)cc1Nc1nc(-c2cccnc2)cs1 [Masitinib]; details: top dose 20 µM
Method: as §1

[10] = top dose 50 µM, screen: GDSC drug entry 1378, top dose inferred
[11] = top dose 64 µM, screen: GDSC drug entry 190

Row | Cell Line | AUC [1] | IC50 [1] [µM] | AUC [2] | IC50 [2] [µM] | AUC [3] | IC50 [3] [µM] | AUC [4] | IC50 [4] [µM] | AUC [5, 10] | IC50 [5, 10] [µM] | AUC [5, 11] | IC50 [5, 11] [µM] | AUC [6] | IC50 [6] [µM] | AUC [7] | IC50 [7] [µM] | AUC [8] | IC50 [8] [µM] | AUC [9] | IC50 [9] [µM]
1 | NCI-H520 (lung squamous cell carcinoma, adherent) | 0.987 | > 16 | 0.986 | > 5 | 0.986 | > 5.12 | 0.842 | 7.52 | 0.936 | > 50 | 0.739 | 19.8 | 0.917 | > 10.2 | 0.427 | 0.0401 | 0.808 | 0.107 | 0.852 | 16.2
2 | NCI-H526 (small cell lung carcinoma, suspension) | 0.985 | > 16 | 0.986 | > 5 | 0.989 | > 5.12 | 0.807 | 4.97 | 0.907 | > 50 | 0.3 | 1.13 | 0.989 | > 10.2 | 0.382 | 0.0308 | 0.973 | > 0.2 | 0.889 | > 20
3 | NCI-H596 (lung adenocarcinoma, adherent) | 0.982 | > 16 | 0.964 | > 5 | 0.979 | > 5.12 | 0.943 | > 10.2 | 0.734 | 18 | 0.658 | 12.5 | 0.982 | > 10.2 | 0.549 | 0.0907 | 0.695 | 0.0523 | 0.908 | > 20
4 | NCI-H661 (large cell lung carcinoma, adherent) | 0.952 | > 16 | 0.954 | > 5 | 0.979 | > 5.12 | 0.906 | > 10.2 | 0.459 | 2.35 | 0.401 | 2.02 | 0.948 | > 10.2 | 0.458 | 0.0479 | 0.352 | 0.00444 | 0.869 | > 20
5 | NCI-H727 (lung carcinoid, adherent) | 0.927 | > 16 | 0.973 | > 5 | 0.977 | > 5.12 | 0.954 | > 10.2 | 0.957 | > 50 | 0.575 | 7.33 | 0.963 | > 10.2 | 0.306 | 0.0126 | 0.927 | > 0.2 | 0.889 | > 20
6 | NCI-H838 (lung adenocarcinoma, adherent) | 0.959 | > 16 | 0.982 | > 5 | 0.987 | > 5.12 | 0.982 | > 10.2 | 0.174 | 0.305 | 0.565 | 6.06 | 0.945 | > 10.2 | 0.653 | 0.174 | 0.431 | 0.00806 | 0.943 | > 20

The IC50 comes from the fitted curve, where viability falls to half of the control; a fit beyond the top or the lowest dose is shown as a bound at that dose. AUC is the area under the same curve over the 256-fold range up to the top dose, as a fraction: 1 means no effect, lower means more sensitive. For part of these data: The top dose, if marked as inferred, comes from the curve model; the source does not state it. For part of these data: An entry number marks a drug with two screens in the source, which often give different values.
